Data taken from paper PMC4336329 (PLoS ONE, 2015).
About 2,200 (0.71%) of roughly 310,000 compounds showed an effect of 50% or more. The effect is printed as a negative number. Some of the results follow.

Each compound was assayed against human ether-à-go-go-related gene (hERG) potassium channel (human, UniProt Q12809) (assay: primary screen, population patch clamp on CHO cells stably expressing hERG).
human ether-à-go-go-related gene (hERG) potassium channel, sequence (Q12809 whole entry, looked up): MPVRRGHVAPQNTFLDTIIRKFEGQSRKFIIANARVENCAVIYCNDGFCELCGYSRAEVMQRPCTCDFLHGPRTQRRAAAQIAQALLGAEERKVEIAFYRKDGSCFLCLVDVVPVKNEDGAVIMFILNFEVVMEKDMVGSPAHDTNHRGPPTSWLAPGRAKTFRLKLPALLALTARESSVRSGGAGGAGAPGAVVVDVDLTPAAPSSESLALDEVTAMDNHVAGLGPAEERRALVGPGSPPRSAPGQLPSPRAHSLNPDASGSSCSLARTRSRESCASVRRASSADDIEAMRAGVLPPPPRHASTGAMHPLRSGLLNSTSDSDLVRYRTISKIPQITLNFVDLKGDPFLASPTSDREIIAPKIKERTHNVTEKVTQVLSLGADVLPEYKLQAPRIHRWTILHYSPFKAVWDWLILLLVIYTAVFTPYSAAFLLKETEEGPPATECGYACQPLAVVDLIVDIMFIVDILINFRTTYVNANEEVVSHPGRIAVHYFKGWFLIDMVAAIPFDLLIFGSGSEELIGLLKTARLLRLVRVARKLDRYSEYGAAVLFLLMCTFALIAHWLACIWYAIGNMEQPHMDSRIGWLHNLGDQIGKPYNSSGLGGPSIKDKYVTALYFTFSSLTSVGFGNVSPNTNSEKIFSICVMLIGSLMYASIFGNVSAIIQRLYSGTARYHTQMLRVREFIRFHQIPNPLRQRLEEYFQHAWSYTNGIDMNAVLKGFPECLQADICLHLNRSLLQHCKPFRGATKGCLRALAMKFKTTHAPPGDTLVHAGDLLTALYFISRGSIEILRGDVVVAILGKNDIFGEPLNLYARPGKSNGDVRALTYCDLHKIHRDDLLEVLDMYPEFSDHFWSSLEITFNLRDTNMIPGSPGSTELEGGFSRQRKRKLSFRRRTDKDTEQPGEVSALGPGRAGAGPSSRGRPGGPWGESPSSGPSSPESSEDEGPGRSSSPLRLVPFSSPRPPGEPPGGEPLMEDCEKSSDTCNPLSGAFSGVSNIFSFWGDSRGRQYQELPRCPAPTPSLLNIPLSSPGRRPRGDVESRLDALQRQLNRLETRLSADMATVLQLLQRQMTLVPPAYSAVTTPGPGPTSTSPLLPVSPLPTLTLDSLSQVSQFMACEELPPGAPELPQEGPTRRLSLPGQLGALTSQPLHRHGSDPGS

| SMILES | hERG current change (%, negative = inhibition) at 1uM [%] |
| --- | --- |
| Cc1ccccc1-n1c(=S)[nH]c2nc3c(cc2c1=O)CCCC3 | 9.53 |
| COc1cc2c(cc1OC)CN(CC(=O)Nc1cccc(C(F)(F)F)c1)CC2 | 9.6 |
| COc1ccccc1C(=O)NCCC(=O)NCC(c1ccco1)N1CCCCC1 (centres unmarked) | 14.6 |
| CCOC(=O)c1nc(C)sc1-c1ccnn1S(=O)(=O)c1ccccc1C(F)(F)F | 2 |
| COc1ccc(CCNC(=O)CNCC2CCCCC2)cc1OC.O=C(O)C(=O)O | 18.8 |
| CCCc1nnc(NC(=O)c2nc(S(=O)(=O)Cc3ccc(C)cc3)ncc2Cl)s1 | -5.38 |
| CCCCNC(=O)C1CCN(Cc2ccc(OCc3ccccc3)cc2)CC1.O=C(O)C(=O)O | -49.6 |
| OCc1nn2c(c1Br)NC(c1ccccc1)CC2C(F)(F)F (centres unmarked) | 11.8 |
| CS(=O)(=O)N(CC(=O)NCCC1=CCCCC1)c1ccc2c(c1)OCO2 | 7.58 |
| CSc1ccc(C(=S)N2CCN(Cc3ccccc3)CC2)cc1 | 8.06 |
| CCOc1ccccc1Nc1nnc(SCC(=O)Nc2cc(C)on2)s1 | 17.4 |
| CN(C(=O)COC(=O)c1ccccc1C(=O)N(C)c1ccccc1)c1ccccc1 | 5.29 |
| Cc1cc(C)n(-c2nnc(Cl)c3ccccc23)n1 | 11.9 |
| CCC1CCC(N2CCN(c3ccccc3F)CC2)CC1 (centres unmarked) | 4.59 |
| N#C[C@H]1C(O)C(O)c2ccccc2N1C(=O)c1ccccc1 (some centres unmarked) | 8.62 |
| CCO[C@@H]1OC(C(=O)N2CCN(Cc3ccccc3)CC2)=C[C@H](c2cn(C(C)=O)c3ccccc23)[C@H]1CCCO | 2.08 |
| COc1cccc(NC(=O)CSC2=C(C#N)C(c3ccco3)C3=C(CCCC3=O)N2)c1 (centres unmarked) | 1.14 |
| CCCCNC(=O)C1CC(=O)N(CCC(C)C)C1 (centres unmarked) | 3.84 |
| Cc1ccc(S(=O)(=O)N(CC(=O)NCc2ccc(F)cc2)C(=O)N2CCN(C)CC2)cc1 | 3.72 |
| COc1ccc(Cl)cc1S(=O)(=O)N1CCC(C(=O)NC2CCCC2)CC1 | -11.4 |
| CS(=O)(=O)c1ccc(SCC(=O)NC2CCS(=O)(=O)C2)c([N+](=O)[O-])c1 (centres unmarked) | -10.4 |
| COc1ccc(CCNC(=O)COc2nsnc2N2CCOCC2)cc1OC | -13.8 |

| SMILES | hERG current change (%, negative = inhibition) at 1uM [%] |
| --- | --- |
| Cc1cc(=O)oc2cc(OCC(=O)Nc3ccc(CN4CCOCC4)cc3)c(Cl)cc12 | 7.55 |
| Cc1c(C(=O)NCCN2CCOCC2)oc2ccc(S(=O)(=O)N3CCCCCC3)cc12 | 0.342 |
| COc1ccc(-c2cc(C#N)nc(N3CCN(C)CC3)n2)cc1 | -4.96 |
| O=C(Nc1cccc(C(=O)O)c1)/C(=C\c1ccccc1)NC(=O)c1ccccc1 | 15.3 |
| O=C(CN1CCC(c2nc3ccccc3[nH]2)CC1)Nc1ccc2c(c1)OCO2 | 0.598 |
| O=C(NC1CCCCC1)C1CC(=O)N(c2ccc(Cl)cc2)C1 (centres unmarked) | 4.92 |
| O=C(CCn1nnc2ccccc2c1=O)N[C@H](C(=O)O)c1ccccc1 | 8.23 |
| O=C(NC1CCCC1)C(c1cccs1)N(C(=O)c1csnn1)c1ccccc1F (centres unmarked) | 17.5 |
| Cc1ccc(C(=O)Nc2nc3ccccc3n2CCN2CCCC2)cc1 | -19.5 |
| COc1ccc(CNC(=O)C(=O)NCC2OCCN2S(=O)(=O)c2ccc3c(c2)OCCO3)cc1 (centres unmarked) | 9.94 |
| COc1ccccc1NC(=O)C(=O)NCCC1CCCCN1S(=O)(=O)c1cccs1 (centres unmarked) | 13.2 |
| Cc1cnn(CCC(=O)NNC(=S)NCC(C)C)c1 | 0.673 |
| O=C(C1CCN(S(=O)(=O)c2ccccc2)CC1)N(CCc1ccccc1)Cc1ccco1 | 4.74 |
| CC1CC(C)CN(C(=O)COC(=O)Cc2ccc(Br)cc2)C1 (centres unmarked) | 12.4 |
| O=C(/C=C/c1ccco1)NCC1CCCO1 (centres unmarked) | 17.6 |
| C=CCn1c(SCCC(=O)O)nnc1-c1cccs1 | 11.5 |
| COc1ccc(C2(C(=O)NC(C)C)CCCC2)cc1OC | 5.98 |
| C#CCNC(=O)C1=C[C@@H](c2ccc3c(c2)OCO3)[C@H](CCCO)[C@@H](OCC)O1 | 16.2 |
| CCC(=O)Nc1cccc(NC(=O)c2cccc([N+](=O)[O-])c2)c1 | 0.202 |
| CCCC(=O)Nc1nnc(SCC(=O)Nc2nc(C)cs2)s1 | 12.2 |
| Cc1cc(C)c2c(-n3cccc3)c(C(=O)NNS(=O)(=O)c3ccc(Cl)cc3)sc2n1 | 15.8 |
| Cc1c(C)c2ccc(OCC(=O)N3CC[C@@]4(O)CCCC[C@H]4C3)cc2oc1=O | -4.56 |

| SMILES | hERG current change (%, negative = inhibition) at 1uM [%] |
| --- | --- |
| COc1cc2c(c(OC)c1OC)-c1c(cc(OC)c(OC)c1OC)C[C@H](C)[C@H](C)C2 | -22.5 |
| CCN(CC)CCCn1c(=S)[nH]c2cc(C(=O)OC)ccc2c1=O | -7.78 |
| CCCC(c1nnnn1CCOC)N1CCN(C(=O)c2ccco2)CC1.Cl (centres unmarked) | 0.283 |
| C/C=C(/C)C(=O)O[C@@H]1[C@H](OC(C)=O)c2c(ccc3ccc(=O)oc23)OC1(C)C | 2 |
| CCn1cc(C(=O)N2CCc3ccccc32)c(=O)c2cc(S(=O)(=O)N3CCCCCC3)ccc21 | -11 |
| COc1ccccc1NS(=O)(=O)c1cccc(C(=O)NCC(c2cccs2)N2CCOCC2)c1 (centres unmarked) | 0.998 |
| C/C(=N/Nc1ncc(Br)cn1)c1ccc(Br)cc1 | 13.4 |
| CCCc1c(C)nc2c(OC)cccc2c1SCC(=O)O | 5.91 |
| CC[n+]1cc(C)ccc1/C=C/c1ccc(N(C)C)cc1.[I-] | 4.74 |
| CCOC(=O)NC1(C(F)(F)F)NC(=O)N(Cc2ccco2)C1=O (centres unmarked) | 8.54 |
| CCOP(=O)(OCC)C(NC(=O)Nc1ccc(C)c(Cl)c1)c1ccccc1 (centres unmarked) | -0.0549 |
| COc1ccc(C(C)=O)cc1CC(=O)Nc1cccc(S(=O)(=O)N2CCOCC2)c1 | 3.08 |
| Cc1noc(C(=O)NCc2cccnc2)c1Cl | 10.8 |
| Cc1ccc(SCc2nc(N)nc(Nc3ccccc3C)n2)c(C)c1 | 9.06 |
| CN1CCN(CC(=O)Nc2ccccc2[N+](=O)[O-])CC1 | 15.4 |
| CC1CC(C)CN(CCCSc2ccccc2)C1.O=C(O)C(=O)O (centres unmarked) | -37.7 |
| Cc1cccc(C)c1N1CCN(C(=O)c2ccc3c(c2)OCO3)CC1 | 11.7 |
| CCOC(=O)C1CCCN(c2c(N3CCOCC3)c(=O)c2=O)C1 (centres unmarked) | 8.35 |
| COc1ccc(C)cc1-n1c(C)cc(C=O)c1C | 2.41 |
| COc1ccc(NC(=O)c2cc(S(=O)(=O)N3CCCCC3)ccc2OC)cc1 | 8.71 |
| Cc1ccc(S(=O)(=O)Nc2cc(-c3nn(C)c(=O)c4ccccc34)ccc2N2CCOCC2)cc1 | -2.81 |
| Cc1nc2ccccc2n1CC(=O)OCC(=O)Nc1ccc2c(c1)OCCO2 | 13.3 |

| SMILES | hERG current change (%, negative = inhibition) at 1uM [%] |
| --- | --- |
| Cc1cccc(CNc2ccc(C(CC(N)=O)NC(=O)Cc3cccc4ccccc34)cc2[N+](=O)[O-])c1 (centres unmarked) | 9.62 |
| CCOC(=O)CC1C(=O)NCCN1c1nc2ccc(C)cn2c(=O)c1/C=C1\SC(=S)N(CC(C)C)C1=O (centres unmarked) | 3.85 |
| Cc1cc(N(C)C)ccc1N=Nc1ccc(N)cc1 | 7.2 |
| O=S(=O)(/C=C/c1ccccc1)c1ccccc1 | 18.5 |
| Cc1nnc(SCC(=O)Nc2ccccc2N2CCOCC2)s1 | 10.9 |
| COC(CNC(=O)Cc1c(C)nc2c(-c3ccccc3)c(C)nn2c1C)OC | 11.7 |
| COC(=O)c1cccc(NC(=O)CN2CCC(NC(=O)c3cc(OC)c(OC)c(OC)c3)CC2)c1 | 2.35 |
| O=C(Nc1cc(Cl)cc(Cl)c1)C(NCC1CCCO1)c1ccccc1 (centres unmarked) | -1.52 |
| CCCn1c(CN2CCN(C(=O)OCC)CC2)nc2cc(NC(C)=O)ccc21 | 18 |
| COc1ccc(NC(=O)COC(=O)c2ccc(S(=O)(=O)N3CCCC3)cc2)cc1OC | 10.5 |
| O=C1NC(=S)N(c2ccc(Br)cc2)C(=O)/C1=C/N1CCN(C(=O)c2ccco2)CC1 | 11.1 |
| CC(=O)c1ccc(NC(=O)C2CC2c2ccccc2)cc1 (centres unmarked) | 10.1 |
| C=CCOC(=O)CCC(=O)Nc1cc(OC)nc(OC)n1 | 9.27 |
| O=[N+]([O-])c1ccc(CNc2ccc(F)cc2)s1 | -6.04 |
| COc1ccc(/C=C/C(=O)C2CC2)cc1COc1cccc(C)c1C | 7.71 |
| NC(=O)C1CCN(C(=O)CN2C(=O)c3ccccc3S2(=O)=O)CC1 | 6.69 |
| Cc1ccccc1Nc1nnc(SCC(=O)NC(=O)NCc2ccco2)s1 | 4.82 |
| COCCCNC(=O)c1ccc(Cn2c(=O)c3ccccc3n(Cc3ccccc3C)c2=O)cc1 | 13.2 |
| Cc1csc(=O)n1CC(=O)OCC(=O)Nc1cc([N+](=O)[O-])ccc1Cl | 10.8 |
| O=[N+]([O-])c1ccc(N2CCCCC2)s1 | 8.39 |
